PubChem BioAssay (Tox21)
The inconclusive results got no clear call from the source; some entries with a clear call stand among them for comparison. For some of these results: Potencies of inconclusive entries are doubtful fits and often do not repeat. Activity calls are given as the source filed them. Unless noted, calls come from the whole dose curve; as a rule, active = well fitted curve in the direction sought with a large enough effect in the repeat runs; inconclusive = weak or mixed curves; inactive = no such curve, though single readings can be large; an effect the other way counts as inactive or inconclusive.

Experiments:
[1] = target: Progesterone receptor (Homo sapiens) (UniProt P06401); assay: qHTS assay to identify small molecule antagonists of the progesterone receptor (PR) signaling pathway (AID 1346795; active = well fitted inhibition curve with a large enough effect in the signal ratio in the repeat runs, not every such curve was filed as active; inconclusive = weak or mixed curves; the % refers to the signal ratio; note: potency is the fitted concentration of half-maximal effect; for activity change, negative = inhibition: % is set by controls: 0 for no effect and ±100 for the full control effect); conditions: PR-UAS-bla HEK293T, beta-lactamase FRET ratio, 16 h; activity change, negative = inhibition: at 92.4 µM (top of the series) unless noted
Outline: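 Antagonist mode with agonist R5020 at 1 nM final and 16 hr incubation at 37C. Reporter was beta-lactamase driven by UAS in HEK293T (PR-UAS-bla), 2% charcoal-stripped serum; signal from LiveBLAzer FRET substrate, 2 hr at room temperature.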

[2] = qHTS assay to identify small molecule antagonists of the progesterone receptor (PR) signaling pathway - cell viability counter screen (AID 1346798); conditions: PR-UAS-bla HEK293T viability, CellTiter-Glo luminescence, 16 h; series mostly up to 92.4 µM; note: potency is the fitted concentration of half-maximal effect; nearly all actives have a fitted effect of over 50% in size
Outline: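 Cytotoxicity read as CellTiter-Glo luminescence (30 min, room temperature) in the same wells as the beta-lactamase readout. HEK293T PR-UAS-bla cells in charcoal-stripped 2% FBS received compound and R5020, then 16 h at 37C, 5% CO2.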

[3] = qHTS assay to identify small molecule agonists of the progesterone receptor (PR) signaling pathway - cell viability counter screen (AID 1346799; calls by dose curve; note: nearly all actives have a fitted effect of over 45% in size; note: potency is the fitted concentration of half-maximal effect; for activity change, negative = cytotoxicity: % is set by controls: 0 for no effect and ±100 for the full control effect); conditions: PR-UAS-bla HEK293T viability, CellTiter-Glo luminescence, 16 h; series mostly up to 92.4 µM
Outline: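 Cytotoxicity measured by CellTiter-Glo luminescence (30 min, RT) in the same wells as the PR beta-lactamase agonist read. Those HEK293T cells had 16 h compound treatment at 37 C in 2% charcoal-stripped FBS medium.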

[4] = Caspase-3/7 induction in CHO-K1 cells by small molecules, qHTS cell viability counter screen (AID 1346979); conditions: CellTiter-Fluor fluorescence, 17 h; activity change, negative = cytotoxicity: at 92.4 µM (top of the series); note: potency is the fitted concentration of half-maximal effect; nearly all actives have a fitted effect of over 35% in size
Outline: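 Cytotoxicity counter screen: CellTiter-Fluor added to compound-treated wild-type CHO-K1 cells at 16 h (37C, 5% CO2), fluorescence measured 1 h later; same wells as caspase-3/7 measurement.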

[5] = target: Nuclear receptor subfamily 1 group I member 2 (Rattus norvegicus) (UniProt Q9R1A7); assay: Rat pregnane X receptor (rPXR) activation by small molecules, qHTS assay (AID 1346983); conditions: rPXR luciferase reporter cells, One-Glo luminescence, 24 h; max activation: active compounds read high; note: potency is the fitted concentration of half-maximal effect; nearly all actives have a fitted effect of over 20% in size
Outline: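 Cell-based rPXR luciferase reporter assay, 2,000 cells per well, rested 5hr at 37 C before compound addition in DMSO, then 24 hr at 37 C. One-Glo reagent was added and luminescence read after 30 min at room temperature.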

[6] = target: Cytochrome P450 2D6 (Homo sapiens) (UniProt P10635); assay: Cytochrome P450 Family 2 Subfamily D Member 6 (CYP2D6) small molecule antagonists: luciferase reporter qHTS assay (AID 1671196); conditions: P450-Glo CYP2D6 enzyme assay, luciferin luminescence, 1 h; series mostly up to 115 µM; note: potency is the fitted concentration of half-maximal effect; nearly all actives have a fitted effect of over 50% in size
Outline: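 Test chemicals meet CYP2D6 plus proluciferin substrate (10 min, RT); NADPH regenerating solution then drives turnover for 1 h. Detection reagent halts the reaction; luminescence measured after 20 min.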

[7] = Human pregnane X receptor (PXR) small molecule agonists, qHTS cell viability counter screen (AID 1346977); conditions: PXR-Luc HepG2 viability, CellTiter-Fluor, 24 h; series mostly up to 92.4 µM; note: nearly all actives have a fitted effect of over 50% in size; note: potency is the fitted concentration of half-maximal effect; for activity change, negative = cytotoxicity: % is set by controls: 0 for no effect and ±100 for the full control effect
Outline: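 Same-well viability read: CellTiter-Fluor added after 23 hr compound exposure, fluorescence measured 1 hr later. Cells were PXR-Luc HepG2 seeded at 2,000/well in 5% charcoal-stripped FBS medium, rested 5 hr before dosing at 37 C.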

[8] = Caspase-3/7 induction in HepG2 cells by small molecules, qHTS assay (AID 1346978); conditions: HepG2 caspase-3/7 activation, Caspase-Glo luminescence, 17 h; series mostly up to 92.4 µM; note: potency is the fitted concentration of half-maximal effect; nearly all actives have a fitted effect of over 15% in size
Outline: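 Wild-type HepG2 cells (2,000/well) were settled 5 h at 37 C, 5% CO2, then exposed to compounds in DMSO for 17 h. Caspase-3/7 activity was read by luminescence 30 min after adding Caspase-Glo 3/7 reagent at room temperature.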

[9] = Caspase-3/7 induction in HepG2 cells by small molecules, qHTS cell viability counter screen (AID 1346981); conditions: CellTiter-Fluor fluorescence, 17 h; series mostly up to 92.4 µM; note: nearly all actives have a fitted effect of over 30% in size; note: potency is the fitted concentration of half-maximal effect; for activity change, negative = cytotoxicity: % is set by controls: 0 for no effect and ±100 for the full control effect
Outline: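 In this quantitative HTS counter screen, compounds delivered in DMSO were left on unmodified HepG2 cells for 16 hr at 37 C. Viability was then determined fluorometrically with CellTiter-Fluor, in parallel with caspase-3/7 induction in the same wells.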

[10] = target: Nuclear receptor subfamily 1 group I member 2 (Homo sapiens) (UniProt O75469); assay: CYP3A4 induction through human pregnane X receptor (PXR) by small molecules, qHTS assay (AID 1346984); conditions: DPX-2 HepG2 PXR, CYP3A4-luciferin luminescence, 24 h; series mostly up to 46.1 µM; note: % is set by controls: 0 for no effect and ±100 for the full control effect; nearly all actives have a fitted effect of over 40% in size
Outline: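 Induction measured in HepG2-based DPX-2 cells co-expressing human PXR and a CYP3A4 promoter-driven luciferase. After a 24-hour compound exposure, cells received CYP3A4 luciferin substrate at 3uM final for 3 hours, and light output was then recorded.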

[11] = target: Cytochrome P450 2C9 (Homo sapiens) (UniProt P11712); assay: Cytochrome P450 Family 2 Subfamily C Member 9 (CYP2C9) small molecule antagonists: luciferase reporter qHTS assay (AID 1671198); conditions: P450-Glo CYP2C9 enzyme assay, luciferin luminescence; series mostly up to 115 µM; note: nearly all actives have a fitted effect of over 50% in size; note: potency is the fitted concentration of half-maximal effect
Outline: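 CYP2C9 activity was measured with a P450-Glo proluciferin substrate. Enzyme–substrate mix was held with compound for 10 min at room temperature, then NADPH regeneration solution was added for 1 h at 37C. Luciferin product was read as luminescence.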

[12] = qHTS assay to identify small molecule antagonists of the TGF-beta/Smad signaling pathway (AID 1346924; active = well fitted inhibition curve with a large enough effect in the signal ratio in the repeat runs, not every such curve was filed as active; inconclusive = weak or mixed curves; the % refers to the signal ratio); conditions: SBE-bla HEK293T, TGF-beta/Smad reporter, beta-lactamase ratio; activity, negative = inhibition: at 76.8 µM (top of the series) unless noted
Outline: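 Read-out was FRET-substrate fluorescence (405 nm excitation; 460 and 530 nm emission) after 2 h at room temperature. Before that, cells carrying a Smad-binding-element beta-lactamase reporter in HEK 293T had been stimulated 5 h at 37 C with TGF-beta1 (0.25 ng/mL addition solution) in the presence of test compound.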

[13] = target: Nuclear receptor subfamily 1 group I member 2 (Homo sapiens) (UniProt O75469); assay: Human pregnane X receptor (PXR) activation by small molecules, qHTS assay (AID 1346985); conditions: DPX-2 HepG2 CYP3A4-luciferase, 24 h; series mostly up to 38.3 µM; note: potency is the fitted concentration of half-maximal effect; nearly all actives have a fitted effect of over 40% in size
Outline: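 DPX-2 cells (HepG2 co-transfected with a PXR response element and a CYP3A4-promoter luciferase construct) were seeded at 2,000 per well, rested 5 hr at 37C, then exposed to DMSO-dissolved compounds for 24 hr. Activation was read as luciferase luminescence.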

[14] = target: Nuclear receptor subfamily 1 group I member 2 (Homo sapiens) (UniProt O75469); assay: Human pregnane X receptor (PXR) small molecule agonists, qHTS assay (AID 1346982); conditions: PXR-Luc HepG2, CYP3A4 luciferase reporter, 24 h; series mostly up to 92.4 µM; note: potency is the fitted concentration of half-maximal effect; nearly all actives have a fitted effect of over 35% in size
Outline: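 Reporter HepG2 cells expressing PXR-Luc are cultured in charcoal-stripped FBS (5%), treated with compounds for 24 hr at 37 C, and assayed by ONE-Glo luminescence after 30 min at room temperature.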

[15] = target: Cytochrome P450 2C19 (Homo sapiens) (UniProt P33261); assay: Cytochrome P450 Family 2 Subfamily C Member 19 (CYP2C19) small molecule antagonists: luciferase reporter qHTS assay (AID 1671197); conditions: P450-Glo CYP2C19 enzyme, luciferin luminescence, 1 h; series mostly up to 115 µM; note: potency is the fitted concentration of half-maximal effect; nearly all actives have a fitted effect of over 65% in size
Outline: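 Luminescent readout of CYP2C19 activity: luciferin product detected 20 min after adding detection reagent. Before that, compound and enzyme-substrate mix preincubated 10 min at room temperature; NADPH-regenerating system started a 1 h, 37C reaction. Ketoconazole as positive control.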
Tags give direction and shape of the fitted curve.

Sequence of UniProt P10635 (P10635 whole entry, looked up): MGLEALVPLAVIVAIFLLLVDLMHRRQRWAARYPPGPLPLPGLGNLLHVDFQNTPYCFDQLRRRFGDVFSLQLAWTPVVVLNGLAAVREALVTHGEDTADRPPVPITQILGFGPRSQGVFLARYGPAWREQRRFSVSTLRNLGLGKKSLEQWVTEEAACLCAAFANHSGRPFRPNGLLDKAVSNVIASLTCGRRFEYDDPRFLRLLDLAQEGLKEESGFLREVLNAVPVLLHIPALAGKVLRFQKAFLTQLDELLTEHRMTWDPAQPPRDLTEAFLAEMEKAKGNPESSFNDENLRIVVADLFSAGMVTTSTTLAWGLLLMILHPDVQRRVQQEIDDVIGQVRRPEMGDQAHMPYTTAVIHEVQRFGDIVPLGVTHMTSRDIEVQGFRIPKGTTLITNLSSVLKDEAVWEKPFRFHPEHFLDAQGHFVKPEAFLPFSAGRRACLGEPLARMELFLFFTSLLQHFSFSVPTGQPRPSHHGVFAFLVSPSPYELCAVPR
Sequence of UniProt P06401 (P06401 whole entry, looked up): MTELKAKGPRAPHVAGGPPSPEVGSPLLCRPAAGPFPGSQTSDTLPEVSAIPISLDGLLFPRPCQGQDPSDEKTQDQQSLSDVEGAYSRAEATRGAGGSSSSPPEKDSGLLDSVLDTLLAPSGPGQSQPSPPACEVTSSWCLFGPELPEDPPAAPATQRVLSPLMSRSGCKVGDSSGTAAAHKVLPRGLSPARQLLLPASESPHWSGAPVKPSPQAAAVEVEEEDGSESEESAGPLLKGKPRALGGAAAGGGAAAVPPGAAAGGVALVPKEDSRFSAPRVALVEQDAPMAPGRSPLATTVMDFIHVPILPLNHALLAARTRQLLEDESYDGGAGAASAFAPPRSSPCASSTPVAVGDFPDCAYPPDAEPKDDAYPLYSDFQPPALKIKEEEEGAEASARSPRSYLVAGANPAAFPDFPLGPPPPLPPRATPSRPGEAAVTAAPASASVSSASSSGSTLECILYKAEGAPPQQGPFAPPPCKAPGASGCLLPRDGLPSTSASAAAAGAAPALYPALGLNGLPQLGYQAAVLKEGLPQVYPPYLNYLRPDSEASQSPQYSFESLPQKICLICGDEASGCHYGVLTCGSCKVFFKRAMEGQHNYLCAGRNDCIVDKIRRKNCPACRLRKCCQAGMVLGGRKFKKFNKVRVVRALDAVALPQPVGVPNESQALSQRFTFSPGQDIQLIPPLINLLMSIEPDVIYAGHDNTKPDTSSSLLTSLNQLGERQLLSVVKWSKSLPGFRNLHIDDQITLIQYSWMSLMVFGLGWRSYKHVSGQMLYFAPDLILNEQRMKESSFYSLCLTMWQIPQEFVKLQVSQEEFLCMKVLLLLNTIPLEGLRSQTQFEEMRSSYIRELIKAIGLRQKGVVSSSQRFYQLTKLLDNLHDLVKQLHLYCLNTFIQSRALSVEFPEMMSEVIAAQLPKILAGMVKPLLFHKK
Sequence of UniProt P11712 (P11712 whole entry, looked up): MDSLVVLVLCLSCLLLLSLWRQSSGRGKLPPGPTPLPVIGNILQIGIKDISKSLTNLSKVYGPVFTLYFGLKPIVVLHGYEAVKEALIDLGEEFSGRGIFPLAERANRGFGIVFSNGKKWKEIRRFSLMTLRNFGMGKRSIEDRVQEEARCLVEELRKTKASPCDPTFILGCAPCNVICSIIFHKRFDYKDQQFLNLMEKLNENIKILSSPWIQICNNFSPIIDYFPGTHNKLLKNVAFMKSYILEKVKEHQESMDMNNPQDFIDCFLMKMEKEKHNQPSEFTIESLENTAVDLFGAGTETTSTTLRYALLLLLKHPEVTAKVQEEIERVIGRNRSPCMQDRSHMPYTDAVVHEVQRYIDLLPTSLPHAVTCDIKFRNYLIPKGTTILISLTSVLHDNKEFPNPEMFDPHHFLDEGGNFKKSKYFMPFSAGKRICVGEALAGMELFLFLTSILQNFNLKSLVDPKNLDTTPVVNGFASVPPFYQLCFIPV
Sequence of UniProt Q9R1A7 (Q9R1A7 whole entry, looked up): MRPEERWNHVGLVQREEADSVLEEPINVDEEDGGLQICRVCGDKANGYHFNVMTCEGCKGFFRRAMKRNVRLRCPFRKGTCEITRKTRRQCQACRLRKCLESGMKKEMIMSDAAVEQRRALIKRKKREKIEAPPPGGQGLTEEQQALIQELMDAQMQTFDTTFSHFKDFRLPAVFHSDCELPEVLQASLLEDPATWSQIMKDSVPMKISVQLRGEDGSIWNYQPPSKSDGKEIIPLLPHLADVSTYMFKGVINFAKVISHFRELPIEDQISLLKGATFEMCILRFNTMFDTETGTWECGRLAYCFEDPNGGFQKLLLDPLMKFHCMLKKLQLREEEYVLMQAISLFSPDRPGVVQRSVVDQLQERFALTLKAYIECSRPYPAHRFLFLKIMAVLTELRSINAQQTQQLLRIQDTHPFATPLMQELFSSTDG
Sequence of UniProt P33261 (P33261 whole entry, looked up): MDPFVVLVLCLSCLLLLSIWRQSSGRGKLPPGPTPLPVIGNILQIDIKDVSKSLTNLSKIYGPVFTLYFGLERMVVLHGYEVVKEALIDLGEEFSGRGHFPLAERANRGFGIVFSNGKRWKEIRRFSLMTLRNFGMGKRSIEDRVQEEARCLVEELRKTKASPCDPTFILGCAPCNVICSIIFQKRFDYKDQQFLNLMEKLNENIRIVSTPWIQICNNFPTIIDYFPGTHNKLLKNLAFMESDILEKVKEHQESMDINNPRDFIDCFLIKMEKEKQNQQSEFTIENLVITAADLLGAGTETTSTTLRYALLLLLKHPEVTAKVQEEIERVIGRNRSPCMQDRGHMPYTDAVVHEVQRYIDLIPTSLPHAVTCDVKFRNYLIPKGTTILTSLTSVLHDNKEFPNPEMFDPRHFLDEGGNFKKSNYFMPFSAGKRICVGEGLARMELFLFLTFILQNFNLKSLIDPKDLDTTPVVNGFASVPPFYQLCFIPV

CCOC(=O)C1=C(C)NC(C)=C(C(=O)OC)C1c1cccc([N+](=O)[O-])c1 (configuration not stated)
inconclusive: Potency [1] 4.22 µM [rising, full curve] | Potency [2] 29.8 µM [rising, single point] | Potency [3] 11.9 µM [rising, partial curve] | Potency [4] 26.6 µM [cytotoxic, partial curve]

COc1ccc(/C=C/C(=O)c2ccc(OC)cc2OC)cc1
inconclusive: Potency [1] 26.6 µM [partial curve] | Potency [2] 21.1 µM [rising, partial curve] | Potency [3] 23.7 µM [rising, partial curve] | Potency [4] 33.5 µM [cytotoxic, single point] | Potency [5] 35.5 µM [activator, single point] | Potency [6] 9.77 µM [inhibitor, full curve]

CCCCCCCCCCCCCCC[C@H](O)[C@@H](N)CO
inconclusive: activity change, negative = inhibition [1] -10.5% [at 42.5 µM] | Potency [2] 33.5 µM [cytotoxic, single point] | Potency [8] 33.5 µM [activator, single point] | Potency [6] 4.9 µM [inhibitor, partial curve]
inactive: Potency [3] | Potency [7] | Potency [9] | Potency [10] | Potency [11]

CCc1nn(CCCN2CCN(c3cccc(Cl)c3)CC2)c(=O)n1CCOc1ccccc1
inconclusive: Potency [2] 37.6 µM [cytotoxic, single point] | Potency [3] 3.76 µM [rising, full curve] | activity, negative = inhibition [12] -24.3% [at 35.3 µM] | Potency [9] 29.8 µM [cytotoxic, single point] | Potency [13] 11.2 µM [activator, partial curve, poor fit]
active: Potency [1] 26.6 µM | Potency [5] 12.6 µM

C[Si](NC1CCCCC1)(NC1CCCCC1)NC1CCCCC1
inactive: Potency [7]
inconclusive: Potency [1] 24.3 µM [rising, full curve] | Potency [2] 13.7 µM [cytotoxic, partial curve] | Potency [3] 13.7 µM [cytotoxic, partial curve] | Potency [6] 44.8 µM [inhibitor, partial curve, poor fit] | Potency [11] 39.9 µM [inhibitor, full curve]

NC(=O)N1C(=O)C(C(=O)c2cc(Cl)cs2)c2cc(F)c(Cl)cc21 (configuration not stated)
inconclusive: Potency [1] 24.3 µM [rising, single point] | Potency [8] 68.6 µM [activator, partial curve, poor fit] | Potency [14] 13.7 µM [activator, partial curve] | Potency [6] 71 µM [inhibitor, partial curve]
active: Potency [2] 30.6 µM | Potency [3] 43.3 µM

COC(=O)Nc1nc2ccc(C(=O)c3cccs3)cc2[nH]1
inconclusive: Potency [1] 0.0944 µM | Potency [2] 1.33 µM [rising, partial curve] | Potency [3] 0.188 µM [rising, full curve] | activity, negative = inhibition [12] 3.68% [at 35.3 µM] | Potency [7] 10.6 µM [cytotoxic, partial curve] | Potency [4] 0.376 µM [cytotoxic, full curve] | Potency [15] 38.9 µM [inhibitor]

CN(C)CC/C=C1\c2ccccc2Sc2ccc(Cl)cc21
inconclusive: Potency [2] 13.3 µM [cytotoxic, full curve] | Potency [3] 16.8 µM [cytotoxic, full curve] | activity, negative = inhibition [12] -29.3% [at 35.3 µM] | Potency [8] 33.5 µM [activator, single point] | Potency [4] 33.5 µM [cytotoxic, single point] | Potency [9] 13.3 µM [cytotoxic, partial curve] | Potency [15] 9.77 µM [inhibitor, partial curve, poor fit]
active: Potency [1] 21.1 µM

Cc1ccc(S(=O)(=O)NC2CCCCC2)cc1
inconclusive: Potency [2] 34.1 µM [rising, partial curve, poor fit] | Potency [3] 68.1 µM [rising, single point] | activity, negative = inhibition [12] -4.86% | Potency [4] 68.1 µM [cytotoxic, single point]
active: Potency [1] 27.1 µM | Potency [11] 22.3 µM
inactive: Potency [7]

CC1(C)CCC(C)(C)c2cc(NC(=O)c3ccc(C(=O)O)cc3)ccc21
active: Potency [1] 16.8 µM
inconclusive: Potency [2] 33.5 µM [rising, partial curve, poor fit] | Potency [3] 29.8 µM | activity, negative = inhibition [12] -4.98% [at 35.3 µM] | Potency [4] 33.5 µM [cytotoxic, single point] | Potency [9] 33.5 µM [cytotoxic, single point] | Potency [11] 38.9 µM [inhibitor, partial curve, poor fit]
